# From the supplement of paper PMC3334620
# Whole data set: some 33,000 sequences, median “E-score (-0.5 to 0.5)” near -0.054, cut for the highest 2% near 0.35. Some of the results follow.
# Molecular target: T1, Stb5 (UniProt P38699)
# T1 sequence: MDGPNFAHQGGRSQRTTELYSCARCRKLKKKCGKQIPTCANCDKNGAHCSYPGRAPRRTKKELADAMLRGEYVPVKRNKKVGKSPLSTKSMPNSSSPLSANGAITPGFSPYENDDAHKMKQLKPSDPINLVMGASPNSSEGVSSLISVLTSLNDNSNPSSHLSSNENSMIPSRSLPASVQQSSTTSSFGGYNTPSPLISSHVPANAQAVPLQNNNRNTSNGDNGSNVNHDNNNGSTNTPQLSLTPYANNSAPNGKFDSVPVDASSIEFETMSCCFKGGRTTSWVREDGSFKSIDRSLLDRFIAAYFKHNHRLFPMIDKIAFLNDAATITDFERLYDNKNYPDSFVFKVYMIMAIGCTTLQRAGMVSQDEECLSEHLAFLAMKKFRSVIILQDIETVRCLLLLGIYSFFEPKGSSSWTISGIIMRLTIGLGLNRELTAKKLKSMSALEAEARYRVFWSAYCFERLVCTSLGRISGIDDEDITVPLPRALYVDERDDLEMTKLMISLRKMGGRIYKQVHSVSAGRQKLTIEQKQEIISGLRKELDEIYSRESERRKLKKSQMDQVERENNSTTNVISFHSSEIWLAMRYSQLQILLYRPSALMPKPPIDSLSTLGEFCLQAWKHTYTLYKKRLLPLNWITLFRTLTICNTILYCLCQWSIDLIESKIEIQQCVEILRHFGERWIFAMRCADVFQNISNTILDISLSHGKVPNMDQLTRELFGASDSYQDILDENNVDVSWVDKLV
# Assay: PBM E-score (8-mer binding enrichment) (E-score (-0.5 to 0.5)); higher = stronger / more preferred TF binding; most listed sequences are background and not binding sites
# Conditions: protein concentration: 200 nM; construct: GST-full length
# Method in brief: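 Universal all-10-mer Agilent arrays, fresh or stripped once, were converted to double-stranded form by primer extension. GST-tagged yeast transcription factors from PURExpress in vitro transcription/translation, full-length or DNA-binding domain only, were applied at about 100-200 nM and detected with fluorescent anti-GST. After masliner normalisation, the Universal PBM Analysis Suite scored each ungapped eight-base word together with its reverse complement by E-score.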
row,Sequence,PBM E-score
1,AGGGCACT,-0.3
2,CCGTAACC,0.246
3,ATTGCAGA,-0.201
4,ACAGCCAC,-0.136
5,CACCCTGG,-0.351
6,CCTCATGC,-0.138
7,ATCGTCCG,0.206
8,AAATTCAT,-0.18
9,CACCCGTA,-0.0744
10,ACTTCATG,0.0333
11,AACAGTTA,0.101
12,CCGCGAAC,0.238
13,AGAGGAGC,-0.189
14,ACGCGCCG,0.166
15,AATCCATG,-0.0649
16,CCTAGGTA,-0.216
17,AGGCTCAG,-0.357
18,GGCGGAAA,0.227
19,ATACCCCC,0.351
20,CGGGAAAC,0.116
21,ACCATGGT,-0.302
22,CGGTCGTC,0.0319
23,CCCCTTTA,-0.166
24,ACTCTGAG,-0.207
25,GAGAACCA,-0.0472

row,Sequence,PBM E-score
1,ATACTCTC,-0.0256
2,CCCCCACC,-0.158
3,CACGGGAA,0.111
4,CCCAGACG,-0.0786
5,ATAGGCTG,-0.136
6,AGTCAGGG,-0.275
7,ACTATGTC,0.00039
8,AGCCTTGC,-0.208
9,ACGTAGGG,-0.0549
10,GCTTCGAC,-0.137
11,GAGGATCA,-0.137
12,CGAGCAGC,-0.0896
13,AATTTAGT,-0.162
14,AGATGGAA,-0.128
15,TGCGGCCA,0.0185
16,GTGGTTGA,-0.123
17,CCAAATGG,0.0606
18,CGGTTCGC,-0.00452
19,AAGGCGTA,-0.114
20,AAGTATTA,-0.171
21,GACCAAAC,-0.0734
22,GCTCAGCA,-0.0662
23,TAGTCCGA,0.309
24,ACACCCGC,0.246
25,ACCCCTAC,-0.171

row,Sequence,PBM E-score
1,AATAGGTG,-0.213
2,CTTACACC,0.238
3,AGCCCTAT,-0.188
4,AAAAACAT,-0.199
5,CTTGGACA,-0.0387
6,CGTAGAAA,-0.144
7,GAAACTTA,0.00796
8,TGAACCCA,-0.126
9,CAGTCGCC,-0.00024
10,AGTTTTTA,-0.105
11,AGATTCAT,-0.232
12,AGGAAGCA,-0.121
13,CAAGTGGA,-0.204
14,CCTGAGGA,-0.0963
15,AGCCGGAT,0.3
16,CGTACTAC,0.123
17,AATCTGGT,0.0765
18,CACAACAA,-0.0976
19,AAACTTTA,0.0435
20,ACCGTCCC,0.266
21,CTTCTAGA,-0.166
22,GAAAGAGA,-0.124
23,AACTTCCG,0.255
24,ATCCGCTG,0.189
25,ATGCAGTA,-0.07

row,Sequence,PBM E-score
1,ACTTTAAT,-0.0458
2,ACGGAGCG,0.299
3,AACAGAAT,-0.165
4,GTATTCAA,0.00883
5,CCGGGTGA,0.179
6,AAGTGCGT,0.0845
7,CTCGGCAG,0.0153
8,GCATAAAA,0.0437
9,AAGCACCT,-0.21
10,ATATTGGC,0.0118
11,CACCTGCG,-0.00428
12,CGTCCCGC,0.2
13,AACGTTCG,-0.0398
14,ACTCGTGA,-0.293
15,AAGCTTTG,-0.222
16,AAGATAGC,0.00882
17,TCAGGTCA,-0.142
18,ATGTGAGC,-0.255
19,TAGTTTCA,0.0389
20,GTAAATAA,-0.0506
21,GACAGTCA,-0.131
22,AGTAGCTC,-0.118
23,ATATGCCG,0.272
24,CACCTCGG,0.218
25,TACATGAA,-0.118

row,Sequence,PBM E-score
1,GGAACTCC,0.181
2,ACTGGACT,-0.192
3,GTCCTGTA,0.0814
4,GACATAAA,0.13
5,GTATCCTA,-0.078
6,AGGACATA,0.0934
7,CACAGACG,-0.0394
8,CATTTTGG,-0.0988
9,GATACACA,-0.151
10,AGAAATAG,-0.115
11,CTAAATCA,0.0591
12,GTACCCGA,0.0499
13,CTCTCCGA,0.00777
14,ACACTGCT,-0.267
15,ACTGAGAG,-0.192
16,AGCGATTG,-0.181
17,GAGAAGAA,-0.262
18,TGCCAGAA,-0.307
19,TACTTGCA,-0.0614
20,ACGGTACG,0.214
21,ACTTCTAA,0.0116
22,GCCCGTCC,0.28
23,GTGGCATA,-0.222
24,AGTCGAAA,-0.109
25,GGGTCTGA,-0.0307

row,Sequence,PBM E-score
1,CCTACATA,0.0245
2,AGGTTCTG,-0.201
3,ATTTAACA,0.00106
4,AGAAAGGA,-0.0618
5,ACCAGAAC,-0.164
6,AATCAAAT,-0.0658
7,ATACTCAT,-0.105
8,CGCGTCAG,-0.0371
9,GAGAGGAA,-0.131
10,AACTGTGG,-0.143
11,CGGAAAAA,0.254
12,ATTATCGC,-0.0009
13,CCAATTCC,0.0601
14,AGGCAGGC,-0.198
15,AGGGTATG,-0.249
16,ATGGACAA,-0.314
17,CTAGAGTC,-0.243
18,CGAGTGCG,0.0659
19,AGAGACTC,-0.355
20,CTAAAGCA,0.0717
21,AAGGCATC,-0.161
22,GTGTAAAC,-0.124
23,ATGTATCG,0.0258
24,ATCAGGTG,-0.0422
25,ACCGGGGA,0.316

row,Sequence,PBM E-score
1,ACGTTTGG,-0.139
2,ACACTGCA,-0.172
3,TGAGATCA,-0.167
4,AGCCAACC,-0.126
5,AAGACGAC,-0.0584
6,CTTCTTCC,-0.0877
7,ATACTGGA,0.055
8,AGCACCGA,0.476
9,AAAAGGCA,-0.087
10,AAAGTGCT,-0.112
11,CAACCACA,-0.101
12,AAAGGATT,-0.138
13,CTGACAAA,-0.124
14,GGTGTTGA,0.162
15,AAGGCAAT,-0.0747
16,AAGCCCAG,-0.154
17,ATAGCCTG,-0.33
18,ACACATCC,-0.108
19,GACTGCAA,-0.165
20,ACATAGAC,-0.0486
21,CGCCCCGC,0.325
22,AACGTACT,-0.106
23,TCCAATAA,0.064
24,GAAGCACA,-0.0648
25,CAATCCCG,0.281

row,Sequence,PBM E-score
1,ATACCGTG,0.249
2,ACTACTTG,-0.179
3,ATTTCTAC,-0.052
4,AACTTAAC,0.0345
5,GCACGTGA,-0.337
6,CCCCGGGG,0.393
7,CATTAACG,-0.00146
8,AAGAATCA,0.0573
9,ACCTGGGC,-0.127
10,GGTTGAAC,-0.0116
11,CATTCAGA,-0.172
12,ATCCGCTA,0.155
13,ACACATGT,-0.0468
14,GCGTGTCC,-0.0227
15,CCTGATTC,-0.194
16,ATTAAGAC,-0.0328
17,ATATCACG,-0.0706
18,CGCATAAA,-0.127
19,GCACTCAA,-0.0587
20,TGTACACA,-0.225
21,ACCCCGGA,0.308
22,GCCCACCA,-0.12
23,AACTTGTA,-0.0937
24,CCCAAGCG,-0.0803
25,CTTTGGTA,-0.011

row,Sequence,PBM E-score
1,ATTAACAC,-0.0259
2,AGGAACGG,0.197
3,CTTAAAGA,-0.00272
4,CATAACAG,0.0446
5,TAGACGAA,-0.16
6,AGAGTGCA,-0.133
7,GAGTGTCA,-0.216
8,AAGAACCC,0.043
9,ACCATAAA,-0.0332
10,CCCAATAC,-0.139
11,ATTTACCC,0.0882
12,GGAGTGTA,0.108
13,AATTGTAA,-0.0199
14,ACAGGGAA,-0.147
15,AGCCCAGC,-0.0545
16,TAGCCAGA,-0.2
17,AGCTAATC,-0.0939
18,GTCCACGA,-0.134
19,AGAGTCTG,-0.282
